Results from the supplement of paper PMC5919970.
Structures can show the parent of a compound that is named as a salt. Over roughly 2,000 compounds, “fractional viability relative to vehicle” has its median near 0.91; the lowest 2% begin near 0.045. Some of the results follow.

Tested on: TYKNU
Experiment: fractional viability relative to vehicle; TYKNU is a high-grade serous ovarian cancer line; higher = less growth inhibition
Conditions: 72 h
In short: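 TYKNU control cells or lentiCRISPRv2 knockout derivatives were plated at 500 cells per well in duplicate into drug-stamped 384-well plates holding a ~2100-compound library at 2 or 10 μM. Culture was in RPMI 1640 with 10% FBS at 37 °C in 5% CO2, with 72 h of drug treatment. Viability was measured by Cell Titer Glo luminescence, and the averaged duplicate treatment wells were normalised to duplicate control wells at the same plate position.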

[1] = 2uM, genotype: DNM1L knockout (sgDNM1L #1)
[2] = 2uM, genotype: sgCTRLA1 (non-targeting control)
[3] = 10uM, genotype: DNM1L knockout (sgDNM1L #1)
[4] = 10uM, genotype: sgCTRLA1 (non-targeting control)

Compound	fractional viability [1]	fractional viability [2]	fractional viability [3]	fractional viability [4]
CN(CC(=O)N(Cc1ccc(C2CCCCC2)cc1)c1ccc(C(=O)O)cc1)S(=O)(=O)c1c(F)c(F)c(F)c(F)c1F	0.435	0.661	0.042	0.0176
CC[C@H](C)[C@H](N)C1=N[C@H](C(=O)N[C@@H](CC(C)C)C(=O)N[C@H](CCC(=O)O)C(=O)N[C@H](C(=O)N[C@H]2CCCCNC(=O)[C@H](CC(N)=O)NC(=O)[C@@H](CC(=O)O)NC(=O)[C@H](Cc3cnc[nH]3)NC(=O)[C@@H](Cc3ccccc3)NC(=O)[C@H]([C@@H](C)CC)NC(=O)[C@@H](CCCN)NC2=O)[C@@H](C)CC)CS1 [Bacitracin]	0.773	1.01	0.665	0.934
O=C(CCc1ccc(O)cc1)c1c(O)cc(O)cc1O [Phloretin]	1	1.08	0.907	1.19
CC(S)C(=O)NCC(=O)O (configuration not stated) [Tiopronin]	1.11	1.15	0.887	1.03
CNCc1ccc(-c2cc(-c3nc(-c4ccc(S(=O)(=O)C(C)C)cc4)cnc3N)on2)cc1	0.919	1.19	0.902	1.1
CN1CCN(CCCN2c3ccccc3Sc3ccc(C(F)(F)F)cc32)CC1 [Trifluoperazine 2HCl]	0.952	1.15	0.455	0.707
CNC[C@H](O)c1ccc(O)c(O)c1 [Epinephrine Bitartrate]	0.865	1.08	0.696	0.908
CNC[C@H](O)c1ccc(O)c(O)c1 [Epinephrine HCl]	0.952	1.03	0.779	0.905
O=C(NCc1ccccc1)c1csc(Nc2ccncn2)n1 [Thiazovivin]	1	1.16	0.791	1.06
CNC(=O)c1cc(Oc2ccc(NC(=O)Nc3ccc(Cl)c(C(F)(F)F)c3)c(F)c2)ccn1 [Regorafenib (BAY 73-4506)]	0.71	0.717	0.472	0.308
CC(C)(C)NCC(O)COc1cccc2c1CCC(=O)N2 (configuration not stated) [Carteolol HCl]	0.876	1.16	0.838	1.14
CN(C)CC(=O)Nc1ccc2[nH]c(=O)c3ccccc3c2c1	0.84	1.06	0.74	1.03
O=C(O)c1cc(/N=N/c2ccc(O)c(C(=O)O)c2)ccc1O [Olsalazine Sodium]	0.872	1.16	0.821	1.16
O=C(Nc1ccccc1-c1cn2c(CN3CCNCC3)csc2n1)c1cnc2ccccc2n1	0.608	0.845	0.0197	0.00961
C[C@@H]1CCO[C@H]2Cn3cc(C(=O)NCc4ccc(F)cc4F)c(=O)c(O)c3C(=O)N12	0.978	1.12	0.956	0.994
O=C(C1CCCCC1)N1CC(=O)N2CCc3ccccc3C2C1 (configuration not stated) [Praziquantel]	0.941	0.996	1.02	0.962
C[C@]1(O)C[C@@H](c2nc(-c3ccc4ccc(-c5ccccc5)nc4c3)c3c(N)nccn32)C1 [OSI-906 (Linsitinib)]	0.888	0.954	0.728	0.899
CC(C)C[C@H](NC(=O)[C@@H](NC(=O)c1cccc(-c2ccccc2)n1)[C@@H](C)O)B(O)O	0.106	0.086	0.121	0.0773
OC[C@H]1O[C@H](O[C@]2(CCl)O[C@H](CCl)[C@@H](O)[C@@H]2O)[C@H](O)[C@@H](O)[C@H]1Cl [Sucralose]	0.825	0.953	0.653	0.96
CNC(=O)c1cc(Oc2ccc(NC(=O)Nc3cc(C(C)(C)C)nn3-c3ccc4ncccc4c3)c(F)c2)ccn1 [DCC-2036 (Rebastinib)]	0.757	1.05	0.201	0.196
CN1CCC(=C2c3ccccc3CCc3cccnc32)CC1 [Azatadine dimaleate]	0.22	0.24	0.146	0.224
Nc1nc2ccc(OC(F)(F)F)cc2s1 [Riluzole]	0.844	1.19	0.778	0.954
COc1ccc2c(c1)c(CC(=O)O)c(C)n2C(=O)c1ccc(Cl)cc1 [Indomethacin]	1.02	1.18	0.913	1.18
CC[C@H]1OC(=O)[C@H](C)[C@@H](O[C@H]2C[C@@](C)(OC)[C@@H](O)[C@H](C)O2)[C@H](C)[C@@H](O[C@@H]2O[C@H](C)C[C@H](N(C)C)[C@H]2O)[C@](C)(O)C[C@@H](C)C(=O)[C@H](C)[C@H]2OC(=O)O[C@@]21C [Erythromycin Cyclocarbonate]	0.806	0.903	0.927	0.877
Cc1c(OCC(F)(F)F)ccnc1C[S@@+]([O-])c1nc2ccccc2[nH]1 [Dexlansoprazole]	1.12	1.16	0.858	1.07
CC(C(=O)O)c1ccc(-c2ccccc2)c(F)c1 (configuration not stated) [Flurbiprofen]	1.02	1.1	0.99	1.05
Cc1cc(O)c2c(c1)C(=O)c1cccc(O)c1C2=O [Chrysophanic Acid]	0.947	1.19	0.926	1.18
NC(=O)c1cn(Cc2c(F)cccc2F)nn1 [Rufinamide]	0.992	1.08	1.07	1.04
